Reference: PubChem BioAssay AID624417 (National Center for Advancing Translational Sciences (NCATS), 2012)
Screen size: about 410,000 compounds; about 6,400 (1.6%) were called active. Inconclusive results, whose numbers are uncertain, are shown with a selection of clear calls. Calls follow the shape of the dose curve; as a rule, active = well fitted inhibition curve with a large enough effect; inconclusive = small, poorly fitted or top-dose-only effect; inactive = no such curve, though single readings can be large or run the other way. A potency beside an inconclusive call is a rough fit, not a confirmed value.

The compounds below were run against Glucagon-like peptide 1 receptor (Homo sapiens) (UniProt P43220) (assay: qHTS of GLP-1 Receptor Inverse Agonists (Inhibition Mode)). Conditions: HEK293 GLP-1R CRE-luciferase, luminescence, 24 h, GLP-1R form is constitutively active; series mostly up to 38.3 µM.
Chain of UniProt P43220 (P43220 whole entry, looked up): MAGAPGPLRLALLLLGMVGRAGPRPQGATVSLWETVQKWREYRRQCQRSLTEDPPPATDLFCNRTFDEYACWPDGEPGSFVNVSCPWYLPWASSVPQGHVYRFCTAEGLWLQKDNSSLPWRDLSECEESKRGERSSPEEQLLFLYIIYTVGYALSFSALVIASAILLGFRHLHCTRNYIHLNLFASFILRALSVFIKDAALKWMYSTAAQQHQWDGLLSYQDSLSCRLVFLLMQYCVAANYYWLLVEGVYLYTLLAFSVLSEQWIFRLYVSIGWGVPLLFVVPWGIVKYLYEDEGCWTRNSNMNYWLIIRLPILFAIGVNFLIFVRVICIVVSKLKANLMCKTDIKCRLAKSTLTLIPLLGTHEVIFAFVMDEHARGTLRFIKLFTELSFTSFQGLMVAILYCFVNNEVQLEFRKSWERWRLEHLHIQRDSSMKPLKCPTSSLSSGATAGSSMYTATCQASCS
In short: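 Assay principle: reduced luminescence from a cAMP-responsive reporter in HEK293 cells co-expressing a constitutively active GLP-1R. Conditions: 24 hr compound incubation, 37 deg C, 5% CO2.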
Also: nearly all actives have a fitted effect of over 55% in size.
Potency is read from the fitted curve at half-maximal effect; tags tell the direction and shape of the fitted curve.

Potency, inconclusive:
CC(=NNC(=S)Nc1cccc(C)c1)c1ccccn1 0.316 µM [inhibitor, full curve, poor fit]
CC(=O)C1=CCC(c2ccc(Cl)c(Cl)c2)N(S(=O)(=O)c2ccc(C)cc2)C1 (centres undefined) 10 µM [inhibitor, single point]
Cc1c(C(=O)OCC2CCCO2)[nH]c2c1C(=O)CC(c1ccc(N(C)C)cc1)C2 (centres undefined) 11.2 µM [inhibitor, partial curve, poor fit]
C/C(=N/Nc1cc(-c2ccccc2)nc(-c2ccccc2)n1)c1ccc(O)cc1 10 µM [inhibitor, partial curve, poor fit]
Cc1cccc(OCC(=O)NCC(=O)N/N=C/c2c(C)[nH]c3ccccc23)c1 1.41 µM [inhibitor, full curve]
COc1cccc(N2CCN(C(=O)c3c4c(nc5ccccc35)C(=O)N(C3CCCCC3)C4)CC2)c1 12.6 µM [inhibitor, single point]
COC(=O)C(Cc1ccc(OC(=O)c2ccccc2Cl)cc1)N1Cc2ccccc2C1=O (centres undefined) 28.2 µM [inhibitor, single point]
O=C(Nc1ccc2c(c1)CCC2)c1cccs1 28.2 µM [inhibitor, single point]
Cc1occc1C(=O)NC1CCCN(Cc2ccc(CC(C)C)cc2)C1 (centres undefined) 11.2 µM [inhibitor, partial curve, poor fit]
COc1ccccc1C(=O)N1CC2(C)CC1CC(C)(C)C2 (centres undefined) 2 µM [inhibitor, full curve]
Cc1cccc(CN2CCC(CNC(=O)Nc3ccccc3F)CC2)c1 11.2 µM [inhibitor, partial curve, poor fit]
COc1ccc(-c2nnc(NC(=O)c3ccc4c(c3)OCCO4)o2)cc1 6.31 µM [inhibitor, partial curve, poor fit]
Cc1ccc(C)c(CS(=O)(=O)c2cn(CC(=O)N3CCC(C)CC3)c3ccccc23)c1 8.91 µM [inhibitor, partial curve, poor fit]
COc1ccc(-c2nc3sc(CCNS(=O)(=O)c4c(C)cc(C)cc4C)c(C)n3n2)cc1 28.2 µM [inhibitor, single point]
Cc1cc(C)c(-c2csc(NC(=O)CCCc3nc4ccccc4c(=O)[nH]3)n2)c(C)c1 12.6 µM [inhibitor, partial curve, poor fit]
COc1ccc(-n2c(C)c(C)c3c(NCCN(C)C)ncnc32)cc1 28.2 µM [inhibitor, single point]
N=C1SCC(=O)N1c1ncc(Cc2ccccc2Cl)s1 20 µM [inhibitor, single point]
CCc1cccc(NC(=O)C(Cc2ccccc2)NS(=O)(=O)c2ccc3c(c2)c(=O)n(C)c(=O)n3C)c1 (centres undefined) 31.6 µM [inhibitor, single point]
OC[C@@H]1[C@@H](c2ccc(F)cc2)C(c2ccccc2)=NN1c1ccccc1 12.6 µM [inhibitor, single point]
O=C(Nc1ncccn1)c1cc(-c2ccc(F)cc2)nc2ccccc12 28.2 µM [inhibitor, single point]
CCOc1ccccc1CSc1nc2ccccc2[nH]1 3.98 µM [inhibitor, partial curve, poor fit]
O=C(Nc1ccc(F)cc1F)N1CCc2c(sc3c2CCCC3)C1c1ccc(F)cc1 (centres undefined) 2.51 µM [inhibitor, full curve]
COC(=O)c1c(NC(=O)CC2SC(N)=NC2=O)sc2c1CCC(C(C)(C)C)C2 (centres undefined) 28.2 µM [inhibitor, single point]
COc1cc(/C=C2/C(=O)NN(c3cccc(C)c3)C2=O)cc([N+](=O)[O-])c1O 11.2 µM [inhibitor, partial curve, poor fit]
Cc1ccc2nc(NC(=O)c3ccc(OCC4CCCO4)cc3)sc2c1 (centres undefined) 31.6 µM [inhibitor, partial curve, poor fit]
Cc1ccc(C(=O)/C=C/c2cn(CC(O)CN3CCCCCC3)c3ccccc23)cc1 (centres undefined) 28.2 µM [inhibitor, single point]
CCC1=C(c2ccc(C)cc2)S(=O)(=O)N=C1N1CCC(C(=O)NCc2ccc(C)cc2)CC1 3.98 µM [inhibitor, single point]
O=C(CN1C(=O)NC2(CCCC2)C1=O)Nc1cc(Cl)ccc1Oc1ccccc1 11.2 µM [inhibitor, single point]
COc1ccc([N+](=O)[O-])cc1NC(=O)CSCc1ccc(Br)cc1 28.2 µM [inhibitor, single point]
CCCOc1ccc(-c2cccc(NS(=O)(=O)c3ccc(CC)cc3)c2)nn1 28.2 µM [inhibitor, single point]
CCOC(=O)C(Cc1ccc(Cl)cc1Cl)c1ccno1 (centres undefined) 28.2 µM [inhibitor, single point]
O=C(Nc1nccs1)c1cn(-c2ccccc2)nc1-c1ccncc1 5.01 µM [inhibitor, full curve, poor fit]
COC(=O)c1c(-c2ccsc2)sc2ccc(-c3cc(OC)c(OC)c(OC)c3)cc12 11.2 µM [inhibitor, single point]
CCCCCCCNC1=CC(=O)CC(c2ccco2)C1 (centres undefined) 20 µM [inhibitor, single point]
CCOC(=O)[C@H]1[C@H]2COc3ccc(Br)cc3[C@@H]2N2C(=O)CN(Cc3ccccc3)C(=O)[C@@]12C 28.2 µM [inhibitor, single point]
O=C(O)C(Cc1c[nH]c2ccccc12)NS(=O)(=O)c1ccc(Cl)cc1 (centres undefined) 5.62 µM [inhibitor, partial curve]
COc1ccc(S(=O)(=O)NCCc2sc(-c3cccc(F)c3)nc2C)cc1 10 µM [inhibitor, single point]
Cc1ccc(C(=O)O/N=C/c2c(C(F)(F)F)nn(C)c2Sc2ccc(Cl)cc2)cc1 15.8 µM [inhibitor, partial curve, poor fit]
COc1ccc(Cn2nnnc2C(c2ccc(N(C)C)cc2)N2CCC(C)CC2)cc1 (centres undefined) 12.6 µM [inhibitor, partial curve, poor fit]
CC(C)(C)NS(=O)(=O)c1ccc2nc(NC(=O)Cc3cccs3)sc2c1 10 µM [inhibitor, partial curve]
CCCCNC(=O)c1onc(CSc2cc(C)cc(C)c2)c1C(=O)NCCCC 10 µM [inhibitor, partial curve, poor fit]
CCN1CCN(C(=S)NC(=O)c2cccc(Br)c2)CC1 11.2 µM [inhibitor, partial curve, poor fit]
O=C(CN1CCN(Cc2ccccc2F)CC1)Nc1ccccc1Cl 28.2 µM [inhibitor, single point]
COC(=O)CSc1nc2c(c(-c3ccc(O)cc3)c1C#N)CCCC2 28.2 µM [inhibitor, single point]
CCOc1ccc2nc(NC(=O)c3ccoc3C)sc2c1 8.91 µM [inhibitor, partial curve, poor fit]
Cc1ccc(SCCC(=O)Nc2ccc(Br)c(C)c2)cc1 22.4 µM [inhibitor, single point]
CC(=O)c1c(N2CCN(c3ccc(F)cc3)CC2)nc(=S)n(-c2ccccc2)c1C 2.24 µM [inhibitor, partial curve, poor fit]
Cc1ccc(Cl)cc1N1CCN(S(=O)(=O)c2ccc(-c3cnc(C4CC4)o3)cc2)CC1 28.2 µM [inhibitor, single point]

Potency, inactive:
CCOc1cccc(C(=O)Nc2nnc(-c3cccs3)s2)c1
COc1ccc(OC)c(S(=O)(=O)N2CCC(C(=O)N3CCN(Cc4ccccc4)CC3)CC2)c1
Cc1cccc(-c2nnc(NC(=O)c3ccco3)s2)c1
CCOc1cccc(CNCc2ccc(C(=O)O)cc2)c1
Cc1ccc(NC(=O)N(C)c2ccccc2)cc1
Cc1cc(C)c(NC(=O)CN(C)S(=O)(=O)c2ccc3c(c2)c(=O)n(C)c(=O)n3C)c(C)c1
O=C(O)CC(Sc1n[nH]c(=S)s1)C(=O)O (centres undefined)
O=Cc1c(Cl)nc2ccccn12
O=C(c1ccco1)N1CCN(C(=O)c2ccco2)CC1
COc1ccc(N2CCN(C(=O)COC(=O)c3oc4ccc(OC)cc4c3C)CC2)cc1
COc1ccc(S(=O)(=O)N2CCN(C(=O)c3ccccc3Cc3ccccc3)CC2)cc1OC
COc1ccc(S(=O)(=O)NCCc2sc(-c3ccccc3)nc2C)cc1F

Potency, active:
CCC(CC)NCc1ccc2c(c1)c1ccccc1n2CC 4.47 µM
CCCC(=O)NC(=S)Nc1ccc(S(=O)(=O)N2CCc3ccccc32)cc1 8.91 µM
OCCN(CCO)CC(O)COc1ccc(C23CC4CC(CC(C4)C2)C3)cc1 (centres undefined) 2.82 µM
COc1ccc(C(C(=O)NC2CCCC2)N(C(=O)c2ccoc2C)c2ccc(C)c(C)c2)cc1 (centres undefined) 10 µM
